45 molecules from article PMC4336329 (PLoS ONE, 2015) can be followed below.

Molecules are shown by their SMILES. Out of some 310,000 compounds screened, about 14,000 (4.5%) showed an effect of 50% or more. Effects have a minus sign here. The list shows a part of the results.
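Note: peak tail current of the secondary pulse compared with the same well before compound.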

This assay deals with human ether-à-go-go-related gene (hERG) potassium channel (human, UniProt Q12809). As to the kind of experiment: primary screen, population patch clamp on CHO cells stably expressing hERG.
human ether-à-go-go-related gene (hERG) potassium channel, sequence (Q12809 whole entry, looked up): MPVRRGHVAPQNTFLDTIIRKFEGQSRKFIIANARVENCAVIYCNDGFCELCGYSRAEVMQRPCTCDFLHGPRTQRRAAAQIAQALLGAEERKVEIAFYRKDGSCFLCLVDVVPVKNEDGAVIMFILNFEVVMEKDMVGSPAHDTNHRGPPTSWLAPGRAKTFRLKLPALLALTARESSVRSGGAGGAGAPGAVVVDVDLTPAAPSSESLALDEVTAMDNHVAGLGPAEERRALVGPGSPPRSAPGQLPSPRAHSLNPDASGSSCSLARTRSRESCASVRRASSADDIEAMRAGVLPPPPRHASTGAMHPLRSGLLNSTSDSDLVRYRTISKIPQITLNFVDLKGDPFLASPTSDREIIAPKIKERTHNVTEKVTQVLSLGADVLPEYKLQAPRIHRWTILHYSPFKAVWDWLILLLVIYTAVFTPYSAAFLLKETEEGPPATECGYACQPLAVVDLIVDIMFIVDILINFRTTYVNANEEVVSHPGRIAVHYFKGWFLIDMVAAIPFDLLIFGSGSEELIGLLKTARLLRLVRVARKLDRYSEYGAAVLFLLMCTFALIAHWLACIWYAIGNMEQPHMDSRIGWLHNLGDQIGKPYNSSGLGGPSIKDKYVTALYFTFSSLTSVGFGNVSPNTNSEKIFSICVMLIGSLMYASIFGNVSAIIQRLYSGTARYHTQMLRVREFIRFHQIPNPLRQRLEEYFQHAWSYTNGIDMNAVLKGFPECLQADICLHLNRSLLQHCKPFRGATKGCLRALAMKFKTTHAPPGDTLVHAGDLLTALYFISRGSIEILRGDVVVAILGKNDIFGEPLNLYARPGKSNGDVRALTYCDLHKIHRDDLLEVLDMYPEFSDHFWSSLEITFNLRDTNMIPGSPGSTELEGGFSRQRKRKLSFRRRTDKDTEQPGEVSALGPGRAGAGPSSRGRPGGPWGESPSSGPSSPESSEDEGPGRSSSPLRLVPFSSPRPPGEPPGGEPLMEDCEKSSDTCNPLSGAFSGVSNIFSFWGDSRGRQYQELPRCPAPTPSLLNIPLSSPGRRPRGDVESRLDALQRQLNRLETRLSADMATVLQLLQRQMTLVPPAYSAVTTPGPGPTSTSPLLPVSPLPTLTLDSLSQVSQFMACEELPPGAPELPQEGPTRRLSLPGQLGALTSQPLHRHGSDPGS
On to `Cc1cc(C(F)(F)F)c(C#N)c(SCC(=O)Nc2nc3ccccc3s2)n1`, for which the “hERG current change (%, negative = inhibition) at 10uM” value is recorded as -16.1%.

Consider `Cc1nnc(SCc2ccccc2)n1N`, for which the “hERG current change (%, negative = inhibition) at 10uM” value worked out at 8.61%.

For `CC1CCN(S(=O)(=O)c2ccc(C(=O)N3CCN(c4ccccc4F)CC3)cc2)CC1`, the “hERG current change (%, negative = inhibition) at 10uM” value worked out at 13.1%.

Turning to `COc1ccc(-c2cc(-c3ccccc3)nc(Cl)n2)cc1OC`, the “hERG current change (%, negative = inhibition) at 10uM” value was 18.2%.

For `Nc1c(C(=O)NCc2cccnc2)sc(=S)n1-c1ccccc1`, the “hERG current change (%, negative = inhibition) at 10uM” value is listed as -6.5%.

On to `COc1ccc(CC(=O)O/N=C(\N)Cc2cccc3ccccc23)cc1`, for which the “hERG current change (%, negative = inhibition) at 10uM” value is 13.4%.

For `Cc1cccc(-c2noc(CN(C)C(=O)c3ccoc3C)n2)c1`, the “hERG current change (%, negative = inhibition) at 10uM” value is reported as 11.6%.

For the molecule `O=C(O)c1cc(S(=O)(=O)Nc2cccc(Oc3ccccc3)c2)ccc1Br`, the “hERG current change (%, negative = inhibition) at 10uM” value was 18.7%.

On to `COc1ccc(-c2csc(NC(=O)C3CCN(C(=O)c4ccc(F)cc4)CC3)n2)cc1OC`, for which the “hERG current change (%, negative = inhibition) at 10uM” value was -13.8%.

For the molecule `Cc1c(C(=O)N2CCN(Cc3cccs3)CC2)oc2ccccc12`, the “hERG current change (%, negative = inhibition) at 10uM” value is on record as -28.9%.

As to `CC(C)c1cc(=O)n2[nH]c(N)nc2n1`, the “hERG current change (%, negative = inhibition) at 10uM” value is 7.45%.

`Cc1ccc(NS(=O)(=O)c2ccccc2)c2c1CC(C)(C)O2`: the “hERG current change (%, negative = inhibition) at 10uM” value is on record as -2.88%.

On to `O=C(O)CCN1CC2([N+](=O)[O-])CC=C(OCCO)C([N+](=O)[O-])(C1)C2` (stereo not drawn), for which the “hERG current change (%, negative = inhibition) at 10uM” value is 20.1%.

Take `NC(=O)c1c(/N=C/c2cccs2)sc2c1CCCC2`: the “hERG current change (%, negative = inhibition) at 10uM” value is 5.92%.

For the molecule `FC(F)(F)c1cc(NC2CCCCC2)ccn1`, the “hERG current change (%, negative = inhibition) at 10uM” value is recorded as 9.54%.

On to `CC(C)(C)C(=O)Nc1ccccc1C(=O)Nc1cccnc1`, for which the “hERG current change (%, negative = inhibition) at 10uM” value is recorded as -6.18%.

As for `CS(=O)(=O)N(CC(=O)N1CCN(Cc2ccccc2)CC1)c1ccccc1F`, the “hERG current change (%, negative = inhibition) at 10uM” value is -5.93%.

Take `c1ccc(-c2noc(-c3ccc4c(c3)OCO4)n2)cc1`: the “hERG current change (%, negative = inhibition) at 10uM” value is given as -3.33%.

Regarding `CCOCC(=O)Nc1nc2ccc(OC)cc2s1`, the “hERG current change (%, negative = inhibition) at 10uM” value was -3.59%.

In the case of `CC(=O)N1N=C(c2cccc([N+](=O)[O-])c2)OC1(C)CC(=O)Nc1ccccc1` (stereo not drawn), the “hERG current change (%, negative = inhibition) at 10uM” value is listed as -12%.

`Cc1ccc(S(=O)(=O)N2CCN(C(=O)COC(=O)c3ccc(C(C)(C)C)cc3)CC2)c(C)c1`: the “hERG current change (%, negative = inhibition) at 10uM” value is 1.77%.

Turning to `COC(=O)C1=C(c2cc3ccccc3s2)C[C@@H]2CC[C@H]1N2C(=O)N1CCOCC1`, the “hERG current change (%, negative = inhibition) at 10uM” value is listed as -13.7%.

For `O=C(Nc1ccc2c(c1)OCCO2)c1cnc2ccccn2c1=O`, the “hERG current change (%, negative = inhibition) at 10uM” value was found to be 1.46%.

As to `CC(C)(C)c1cc(C(=O)NCc2ccccc2)ccn1`, the “hERG current change (%, negative = inhibition) at 10uM” value worked out at 8.64%.

For `CCOc1ccc(CCNC(=O)c2cccc(S(=O)(=O)N3CC(C)OC(C)C3)c2)cc1OCC` (stereo not drawn), the “hERG current change (%, negative = inhibition) at 10uM” value is -27.3%.

`CCC(C)NC(=O)COc1ccccc1[N+](=O)[O-]` (stereo not drawn): the “hERG current change (%, negative = inhibition) at 10uM” value stood at 16%.

Take `CCOC(=O)/C=C1\SCC(=O)N1CC(=O)N1CCOCC1`: the “hERG current change (%, negative = inhibition) at 10uM” value came out at 24.8%.

With `O=C(O)c1ccccc1C(=O)NCc1ccc2c(c1)OCO2`, the “hERG current change (%, negative = inhibition) at 10uM” value is given as 11%.

As to `CC1CCc2c(sc(NC(=O)c3ccc(-c4ccccc4[N+](=O)[O-])o3)c2C#N)C1` (stereo not drawn), the “hERG current change (%, negative = inhibition) at 10uM” value was determined as 18.6%.

On to `CCn1c(SCc2nc3cc(OC)c(OC)cc3c(=O)[nH]2)nc2ccccc21`, for which the “hERG current change (%, negative = inhibition) at 10uM” value came out at 12.2%.

`O=S(=O)(NCCSc1nnnn1-c1ccccc1)c1cccs1`: the “hERG current change (%, negative = inhibition) at 10uM” value is listed as -18.9%.

For the molecule `COc1nc(OC)nc(N2CCC(C(=O)Nc3cccc4c3CCCC4)CC2)n1`, the “hERG current change (%, negative = inhibition) at 10uM” value is -2.3%.

On to `COc1ccc(N2CC(C(=O)O)CC2=O)cc1` (stereo not drawn), for which the “hERG current change (%, negative = inhibition) at 10uM” value was determined as 21.1%.

For the molecule `CCN(CC)S(=O)(=O)c1cccc(NC(=O)c2cc(=O)[nH]c3ccccc23)c1`, the “hERG current change (%, negative = inhibition) at 10uM” value is given as -26%.

For the molecule `CCCn1c(=O)[nH]c(=O)c2c1nc(-c1ccc(OC(F)F)c(OC)c1)n2CCOC`, the “hERG current change (%, negative = inhibition) at 10uM” value was -50.5%.

`CC(N=C1CC(C)(C)CC(=O)/C1=C(/O)CCCN1C(=O)c2ccccc2C1=O)C(=O)O` (stereo not drawn): the “hERG current change (%, negative = inhibition) at 10uM” value is on record as 16.1%.

In the case of `NC(=O)C1CCN(c2nc(-c3ccccc3)nc3ccccc23)CC1`, the “hERG current change (%, negative = inhibition) at 10uM” value is -56%.

As for `Cc1ccc(CN2CCN(Cc3cn(C)nc3C)CC2CCO)o1` (stereo not drawn), the “hERG current change (%, negative = inhibition) at 10uM” value was 12.4%.

As for `CN(C(=O)c1cnccn1)c1c(N)n(Cc2ccccc2)c(=O)[nH]c1=O`, the “hERG current change (%, negative = inhibition) at 10uM” value is 3.69%.

On to `Cc1ccsc1C(=O)N1CCN(c2ncccn2)CC1`, for which the “hERG current change (%, negative = inhibition) at 10uM” value is given as 7.76%.

Consider `CN1CCN(c2ccc(NC(=O)c3ccc4c(c3)[nH]c(=O)n4Cc3ccc(F)cc3)cc2)CC1`, for which the “hERG current change (%, negative = inhibition) at 10uM” value was -1.93%.

Take `Cc1ccccc1OCC(=O)Nc1ccc(C)c(S(=O)(=O)N2CCCCCC2)c1`: the “hERG current change (%, negative = inhibition) at 10uM” value was -15.4%.

On to `CCn1c(SCC(=O)Nc2cccc(NC(C)=O)c2)nc2c([nH]c3ccccc32)c1=O`, for which the “hERG current change (%, negative = inhibition) at 10uM” value is given as -1.95%.

As for `COc1cc(C2Nc3ccccc3NC3=C2C(=O)CC(C)(C)C3)cc(OC)c1OC(C)=O` (stereo not drawn), the “hERG current change (%, negative = inhibition) at 10uM” value is 19.3%.

On to `COCCNC(=O)Cn1cc(C=C2C(=O)NC(=O)NC2=O)c2ccccc21`, for which the “hERG current change (%, negative = inhibition) at 10uM” value is reported as 18.1%.
